Assay results as given in publication PMC12656546, “Enterohepatic Recirculation-Mediated Reabsorption of Aristolochic Acid I: Revealed by Toxicokinetics and Metabolite Identification in Rats” (Toxics, 2025).
Several values for one entry are separate records, joined by “and”; a condition that tells them apart may be missing. Equal values may be shown once. The source gives many values for each of these; only a part stands here.

Experiment: Toxicokinetic study of AAI after single oral administration (plasma, UPLC-QQQ-MS/MS, NCA)
Type: in vivo, F344 rats
Protocol: For toxicokinetic study, forty-eight […] F344 rats (specific pathogen-free grade) were enrolled in the study, with equal numbers of males and females. All rats were purchased from Charles River Laboratory (Raleigh, NC, USA). All rats were confirmed to be healthy based on a series of physical health examinations. Rats were acclimated for 5 days at a temperature of 20–26 °C, humidity of 40–70% and a 12 h light/dark circle. The rats were randomly divided into four groups (n = 12 per group), with equal numbers of males and females in each group. The allocation was performed separately for each sex (female and male) based on body weight using a stratified randomization method. During the experiment, rats were fasted and had access to water ad libitum. To minimize confounding factors, treatments and measurements were randomized within each session. Cages from different groups were evenly distributed across racks in the same room to reduce bias from light and temperature. This study was approved by the Institutional Animal Care and Use Committee (IACUC) of the National Drug Safety Evaluation Center (Approval No. IACUC-2024-K011, 20 September 2024).
During the experiment, each rat received a single oral administration via gastric gavage. Rats in the control group were administered with 0.5% sodium carboxymethyl cellulose (CMC-Na) suspension. For the treatment groups, rats were administered with gavage solution containing 10, 30 and 100 mg/kg of AAI. The gavage solution was prepared by uniformly dispersing the reference standard of AAI in the 0.5% CMC-Na solution. After oral administration, blood samples were collected from the postorbital vein plex of rats and immediately placed in EDTA tubes. To capture potential reabsorption which might occur long after AAI administration, 15 blood sampling time points were established for each dose group. A sparse sampling approach was employed to avoid excessive blood loss in each rat. For each dosage, 12 rats were subdivided into two groups. For the first group, blood samples were collected from 6 rats at 10, 30, 60, 90, 120, 240, 420, and 600 min after AAI administration; for the second group, blood samples were collected from these 6 rats at 12, 14, 16, 18, 20, 22, and 24 h after AAI administration. Therefore, the experimental design ensured that six biological replicates were obtained for each sampling time point, enabling robust toxicokinetic analysis.
Rat plasma samples were prepared as follows: Blood was centrifuged at 13,200 rpm for 10 min. Then, 25 μL of retrieved plasma was transferred to 2 mL centrifuge tubes, followed by the addition of 75 μL of methanol/acetonitrile solution (v/v, 1∶1) containing indomethacin as internal standard (IS). After vortexing for 2 min and centrifugation for 10 min at 13,200 rpm, the supernatant was used as study samples for quantitative analysis. Quality control samples (QCs) and calibration standards were prepared by spiking blank plasma with different concentrations of AAI standard solution. The QCs and calibration standards were processed using identical procedures as the study samples.
A method of ultra-performance liquid chromatography coupled with triple quadrupole tandem mass spectrometry (UPLC-QQQ-MS/MS) was developed to achieve the quantitation of AAI in rat plasma. The LC-MS/MS analysis was performed using an Acquity UPLC I-Class system coupled with an Xevo TQ XS spectrometer (Waters, Milford, MA, USA). An Acquity UPLC BEH C18 column (2.1 mm × 50 mm, 1.7 μm, Waters, Milford, MA, USA) was employed for chromatographic separation. The mobile phases consisted of water containing 5 mmol/L ammonium formate/0.1% formic acid (A) and acetonitrile (B). The gradient elution was set as follows: 1–4 min, 10–90% B; 4–5 min, 90% B; 5–5.01 min, 90–10% B; 5.01–7 min, 10% B. The flow rate was set at 0.4 mL/min. The column temperature was maintained at 40 °C. A sample volume of 2 μL was injected for analysis. […]

COc1cccc2c1cc([N+](=O)[O-])c1c(C(=O)O)cc3c(c12)OCO3 [AAI, Aristolochic acid I]
AAI plasma concentration (high-dose (100 mg/kg oral), 0.167 h, individual rats M301,M302,M303,F301,F302,F303, 100 mg/kg): 1009.67 ng/mL and 1062.01 ng/mL and 1721.81 ng/mL and 1913.03 ng/mL and 1643.16 ng/mL and 607.21 ng/mL | AAI plasma concentration (high-dose (100 mg/kg oral), 0.5 h, individual rats M301,M302,M303,F301,F302,F303, 100 mg/kg): 2999.47 ng/mL and 3184.21 ng/mL and 4967.56 ng/mL and 1741.22 ng/mL and 7104.04 ng/mL and 8362.47 ng/mL | AAI plasma concentration (high-dose (100 mg/kg oral), 1 h, individual rats M301,M302,M303,F301,F302,F303, 100 mg/kg): 6490.96 ng/mL and 6245.89 ng/mL and 10563.14 ng/mL and 3115.53 ng/mL and 9980.23 ng/mL and 12351.60 ng/mL | AAI plasma concentration (high-dose (100 mg/kg oral), 1.5 h, individual rats M301,M302,M303,F301,F302,F303, 100 mg/kg): 1664.97 ng/mL and 2038.97 ng/mL and 4522.83 ng/mL and 3778.52 ng/mL and 3945.25 ng/mL and 12165.24 ng/mL | AAI plasma concentration (high-dose (100 mg/kg oral), 2 h, individual rats M301,M302,M303,F301,F302,F303, 100 mg/kg): 1799.39 ng/mL and 2407.42 ng/mL and 4896.69 ng/mL and 9005.21 ng/mL and 2601.40 ng/mL and 10921.55 ng/mL | AAI plasma concentration (high-dose (100 mg/kg oral), 4 h, individual rats M301,M302,M303,F301,F302,F303, 100 mg/kg): 136.32 ng/mL and 213.45 ng/mL and 139.82 ng/mL and 336.71 ng/mL and 1280.18 ng/mL and 446.76 ng/mL | AAI plasma concentration (high-dose (100 mg/kg oral), 7 h, individual rats M301,M302,M303,F301,F302,F303, 100 mg/kg): 173.06 ng/mL and 63.95 ng/mL and 15.64 ng/mL and 63.08 ng/mL and 33.78 ng/mL and 275.77 ng/mL | AAI plasma concentration (high-dose (100 mg/kg oral), 10 h, individual rats M301,M302,M303,F301,F302,F303, 100 mg/kg): 122.68 ng/mL and 64.66 ng/mL and 30.04 ng/mL and 8.77 ng/mL and 38.31 ng/mL and 129.34 ng/mL | AAI plasma concentration (high-dose (100 mg/kg oral), 12 h, individual rats M304,M305,M306,F304,F305,F306, 100 mg/kg): 16.05 ng/mL and 14.02 ng/mL and 42.26 ng/mL and 19.30 ng/mL and 13.11 ng/mL and 4.59 ng/mL | AAI plasma concentration (high-dose (100 mg/kg oral), 14 h, individual rats M304,M305,M306,F304,F305,F306, 100 mg/kg): 2.18 ng/mL and 6.90 ng/mL and 11.25 ng/mL and 12.80 ng/mL and 5.22 ng/mL and 1.93 ng/mL | AAI plasma concentration (high-dose (100 mg/kg oral), 16 h, individual rats M304,M305,M306,F304,F305,F306, 100 mg/kg): 5.46 ng/mL and 4.41 ng/mL and 1.05 ng/mL and 3.74 ng/mL and 3.08 ng/mL and 7.06 ng/mL | AAI plasma concentration (high-dose (100 mg/kg oral), 18 h, individual rats M304,M305,M306,F304,F305,F306, 100 mg/kg): 7.04 ng/mL and 3.67 ng/mL and 3.01 ng/mL and 4.52 ng/mL and 4.90 ng/mL and 2.70 ng/mL | AAI plasma concentration (high-dose (100 mg/kg oral), 20 h, individual rats M304,M305,M306,F304,F305,F306, 100 mg/kg): 25.70 ng/mL and 2.27 ng/mL and 3.98 ng/mL and 11.14 ng/mL and 9.92 ng/mL and 3.92 ng/mL | AAI plasma concentration (high-dose (100 mg/kg oral), 22 h, individual rats M304,M305,M306,F304,F305,F306, 100 mg/kg): 47.98 ng/mL and 1.65 ng/mL and 5.50 ng/mL and 142.21 ng/mL and 79.80 ng/mL and 80.57 ng/mL | AAI plasma concentration (high-dose (100 mg/kg oral), 24 h, individual rats M304,M305,M306,F304,F305,F306, 100 mg/kg): 58.08 ng/mL and 2.38 ng/mL and 52.27 ng/mL and 136.79 ng/mL and 46.66 ng/mL and 121.57 ng/mL | AAI plasma concentration (low-dose (10 mg/kg oral), 0.167 h, individual rats M101,M102,M103,F101,F102,F103, 10 mg/kg): 302.65 ng/mL and 205.66 ng/mL and 224.48 ng/mL and 361.73 ng/mL and 237.84 ng/mL and 131.58 ng/mL | AAI plasma concentration (low-dose (10 mg/kg oral), 0.5 h, individual rats M101,M102,M103,F101,F102,F103, 10 mg/kg): 640.11 ng/mL and 496.76 ng/mL and 561.81 ng/mL and 348.84 ng/mL and 161.56 ng/mL and 436.18 ng/mL | AAI plasma concentration (low-dose (10 mg/kg oral), 1 h, individual rats M101,M102,M103,F101,F102,F103, 10 mg/kg): 320.59 ng/mL and 171.91 ng/mL and 184.15 ng/mL and 218.72 ng/mL and 153.69 ng/mL and 342.08 ng/mL | AAI plasma concentration (low-dose (10 mg/kg oral), 1.5 h, individual rats M101,M102,M103,F101,F102,F103, 10 mg/kg): 295.58 ng/mL and 175.49 ng/mL and 161.16 ng/mL and 122.35 ng/mL and 58.12 ng/mL and 123.57 ng/mL | AAI plasma concentration (low-dose (10 mg/kg oral), 2 h, individual rats M101,M102,M103,F101,F102,F103, 10 mg/kg): 135.36 ng/mL and 134.41 ng/mL and 131.07 ng/mL and 93.20 ng/mL and 247.55 ng/mL and 212.86 ng/mL | AAI plasma concentration (low-dose (10 mg/kg oral), 4 h, individual rats M101,M102,M103,F101,F102,F103, 10 mg/kg): 45.53 ng/mL and 79.65 ng/mL and 58.36 ng/mL and 82.38 ng/mL and 47.04 ng/mL and 118.25 ng/mL | AAI plasma concentration (low-dose (10 mg/kg oral), 7 h, individual rats M101,M102,M103,F101,F102,F103, 10 mg/kg): 24.53 ng/mL and 14.80 ng/mL and 16.15 ng/mL and 40.40 ng/mL and 23.83 ng/mL and 38.02 ng/mL | AAI plasma concentration (low-dose (10 mg/kg oral), 10 h, individual rats M101,M102,M103,F101,F102,F103, 10 mg/kg): 18.34 ng/mL and 7.28 ng/mL and 14.52 ng/mL and 56.42 ng/mL and 36.96 ng/mL and 37.99 ng/mL | AAI plasma concentration (low-dose (10 mg/kg oral), 12 h, individual rats M104,M105,M106,F104,F105,F106, below LLOQ set to zero, 10 mg/kg): 1.11 ng/mL and 5.17 ng/mL and 0.00 ng/mL (3×) and 1.35 ng/mL | AAI plasma concentration (low-dose (10 mg/kg oral), 14 h, individual rats M104,M105,M106,F104,F105,F106, below LLOQ set to zero): 0.00 ng/mL | AAI plasma concentration (low-dose (10 mg/kg oral), 16 h, individual rats M104,M105,M106,F104,F105,F106, below LLOQ set to zero): 0.00 ng/mL | AAI plasma concentration (medium-dose (30 mg/kg oral), 24 h, individual rats M204,M205,M206,F204,F205,F206, 30 mg/kg): 0.34 ng/mL and 6.62 ng/mL and 84.22 ng/mL and 6.41 ng/mL
